{"source": "the supplement of paper PMC10126150", "note": "Sequences with one replicate were seen in a single cluster, so their values are uncertain.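 Also: ATP exposure 15 min at 22 °C before imaging.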", "data": [{"test_system": "ATP", "assay": "switch fluorescence ratio, 500 uM ATP over buffer (Cy3 cluster intensity, sum of 5 cycles each) (fold (ratio)); higher = stronger signal-on switching upon ATP binding; sequences stand for … in TCGTCGGCAGCGTCAGATGTGTATAAGAGACAGTTTTTTTTTTTTTTTTTTTTTTTTT…TC", "details": "aptamer strand: ATP DNA aptamer (quencher-CACCTGGGGGAGTATTGCGGAGGAAGG + anchor), 100 nM annealed; ATP concentration: 500 uM; one replicate", "outline": "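Five buffer/ATP imaging cycles were run on Cy3-labelled switching-strand clusters on a modified Illumina MiSeq flow-cell, with NaOH stripping and re-annealing between cycles. In each cycle, clusters annealed to 100 nM quencher-labelled ATP aptamer were imaged in selection buffer, then after 15 min with 500 uM ATP at 22 °C. Per cluster, the fluorescence ratio is summed target-cycle over summed buffer-cycle Cy3 intensity, averaged per switch-domain sequence. Only clusters within 100-1000 RFU were kept.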", "values": [{"sequence": "GGCGTTTAGT", "switch fluorescence ratio": 1.02}, {"sequence": "GGCGTTTCCT", "switch fluorescence ratio": 0.995}, {"sequence": "GGCTAAAGGT", "switch fluorescence ratio": 1}, {"sequence": "GGCTAAGGGC", "switch fluorescence ratio": 1}, {"sequence": "GGCTAATGCC", "switch fluorescence ratio": 1.03}, {"sequence": "GGCTACGTGG", "switch fluorescence ratio": 0.951}, {"sequence": "GGCTACTATG", "switch fluorescence ratio": 1.05}, {"sequence": "GGCTAGTGTG", "switch fluorescence ratio": 0.988}, {"sequence": "GGCTCAAGTT", "switch fluorescence ratio": 0.991}, {"sequence": "GGCTCAGTCA", "switch fluorescence ratio": 0.999}, {"sequence": "GGCTCCAAGG", "switch fluorescence ratio": 1.03}, {"sequence": "GGCTCCCTCA", "switch fluorescence ratio": 1.04}, {"sequence": "GGCTCCGTGG", "switch fluorescence ratio": 1.11}, {"sequence": "GGCTGAAAGA", "switch fluorescence ratio": 1.04}, {"sequence": "GGCTGAGTAT", "switch fluorescence ratio": 1}, {"sequence": "GGCTGAGTCG", "switch fluorescence ratio": 0.975}, {"sequence": "GGCTGATTAC", "switch fluorescence ratio": 1.14}, {"sequence": "GGCTGCTACT", "switch fluorescence ratio": 1.03}, {"sequence": "GGCTGCTCGC", "switch fluorescence ratio": 0.982}, {"sequence": "GGCTGGATGC", "switch fluorescence ratio": 1.01}, {"sequence": "GGCTGGTAGG", "switch fluorescence ratio": 1.01}, {"sequence": "GGCTGTAGTA", "switch fluorescence ratio": 0.989}, {"sequence": "GGCTTAAAAC", "switch fluorescence ratio": 0.973}, {"sequence": "GGCTTAAATA", "switch fluorescence ratio": 1}, {"sequence": "GGCTTACATC", "switch fluorescence ratio": 0.99}, {"sequence": "GGCTTACCGA", "switch fluorescence ratio": 1.01}, {"sequence": "GGCTTAGTTA", "switch fluorescence ratio": 1.01}, {"sequence": "GGCTTATGGG", "switch fluorescence ratio": 1.01}, {"sequence": "GGCTTCTTTG", "switch fluorescence ratio": 0.936}, {"sequence": "GGCTTGAAAC", "switch fluorescence ratio": 1.02}, {"sequence": "GGCTTGAGGT", "switch fluorescence ratio": 0.956}, {"sequence": "GGCTTGCCTG", "switch fluorescence ratio": 0.997}, {"sequence": "GGCTTGGGTC", "switch fluorescence ratio": 0.967}, {"sequence": "GGCTTTAGAT", "switch fluorescence ratio": 1.03}, {"sequence": "GGCTTTTCGA", "switch fluorescence ratio": 1.02}, {"sequence": "GGGAAAATTG", "switch fluorescence ratio": 1.04}, {"sequence": "GGGAAACTTA", "switch fluorescence ratio": 0.989}, {"sequence": "GGGAAAGCAT", "switch fluorescence ratio": 1.1}, {"sequence": "GGGAACAAAC", "switch fluorescence ratio": 0.944}, {"sequence": "GGGAACGCGA", "switch fluorescence ratio": 1.09}, {"sequence": "GGGAACGCGG", "switch fluorescence ratio": 1.14}, {"sequence": "GGGAAGACAG", "switch fluorescence ratio": 0.981}, {"sequence": "GGGAAGCTAA", "switch fluorescence ratio": 1.02}, {"sequence": "GGGAAGGGCC", "switch fluorescence ratio": 1.05}, {"sequence": "GGGAATAGTC", "switch fluorescence ratio": 1.02}, {"sequence": "GGGAATGCCC", "switch fluorescence ratio": 1.03}, {"sequence": "GGGAATTCCT", "switch fluorescence ratio": 0.964}, {"sequence": "GGGACAACGT", "switch fluorescence ratio": 0.987}, {"sequence": "GGGACGCTTT", "switch fluorescence ratio": 1.01}, {"sequence": "GGGACGGGAT", "switch fluorescence ratio": 0.937}, {"sequence": "GGGACGTAGC", "switch fluorescence ratio": 1.1}, {"sequence": "GGGACTAAAT", "switch fluorescence ratio": 0.95}, {"sequence": "GGGACTGGAG", "switch fluorescence ratio": 0.97}, {"sequence": "GGGACTTCTA", "switch fluorescence ratio": 1.02}, {"sequence": "GGGAGACTTG", "switch fluorescence ratio": 0.99}, {"sequence": "GGGAGCCAAA", "switch fluorescence ratio": 0.967}, {"sequence": "GGGAGCGGGC", "switch fluorescence ratio": 0.851}, {"sequence": "GGGAGGCAGC", "switch fluorescence ratio": 0.985}, {"sequence": "GGGAGGGATC", "switch fluorescence ratio": 1.01}, {"sequence": "GGGAGTACTG", "switch fluorescence ratio": 1}, {"sequence": "GGGAGTCTAC", "switch fluorescence ratio": 0.956}, {"sequence": "GGGAGTGCTA", "switch fluorescence ratio": 0.988}, {"sequence": "GGGAGTTCAA", "switch fluorescence ratio": 0.999}, {"sequence": "GGGAGTTCCC", "switch fluorescence ratio": 1.05}, {"sequence": "GGGAGTTCGT", "switch fluorescence ratio": 1.02}, {"sequence": "GGGAGTTTGT", "switch fluorescence ratio": 0.99}, {"sequence": "GGGATAAATT", "switch fluorescence ratio": 0.986}, {"sequence": "GGGATCACAG", "switch fluorescence ratio": 1}, {"sequence": "GGGATGAGAT", "switch fluorescence ratio": 0.988}, {"sequence": "GGGATGCTTG", "switch fluorescence ratio": 1.12}, {"sequence": "GGGATTATGC", "switch fluorescence ratio": 0.933}, {"sequence": "GGGATTCGC", "switch fluorescence ratio": 1.03}, {"sequence": "GGGCAATCTC", "switch fluorescence ratio": 3.81}, {"sequence": "GGGCACAGGA", "switch fluorescence ratio": 0.935}, {"sequence": "GGGCACATGA", "switch fluorescence ratio": 0.985}, {"sequence": "GGGCCAGGAT", "switch fluorescence ratio": 0.943}, {"sequence": "GGGCCCATAT", "switch fluorescence ratio": 1.02}, {"sequence": "GGGCCTTTGT", "switch fluorescence ratio": 1}, {"sequence": "GGGCGCAATG", "switch fluorescence ratio": 3.83}, {"sequence": "GGGCGCTGT", "switch fluorescence ratio": 0.984}, {"sequence": "GGGCGTATGG", "switch fluorescence ratio": 0.97}, {"sequence": "GGGCGTCCT", "switch fluorescence ratio": 1.04}, {"sequence": "GGGCGTGATA", "switch fluorescence ratio": 1.05}, {"sequence": "GGGCTAGGTG", "switch fluorescence ratio": 1.76}, {"sequence": "GGGCTATGAC", "switch fluorescence ratio": 0.998}, {"sequence": "GGGCTGGCCG", "switch fluorescence ratio": 0.973}, {"sequence": "GGGCTGGCGG", "switch fluorescence ratio": 0.971}, {"sequence": "GGGCTGGGCA", "switch fluorescence ratio": 1.05}, {"sequence": "GGGCTGGTCA", "switch fluorescence ratio": 1}, {"sequence": "GGGCTTAGCG", "switch fluorescence ratio": 0.98}, {"sequence": "GGGGAACTTG", "switch fluorescence ratio": 0.98}, {"sequence": "GGGGAAGCGT", "switch fluorescence ratio": 0.976}, {"sequence": "GGGGAAGTTA", "switch fluorescence ratio": 1.05}, {"sequence": "GGGGAATATC", "switch fluorescence ratio": 1.12}, {"sequence": "GGGGACATGT", "switch fluorescence ratio": 1.01}, {"sequence": "GGGGACCCTT", "switch fluorescence ratio": 1.02}, {"sequence": "GGGGACTTGA", "switch fluorescence ratio": 0.995}, {"sequence": "GGGGAGCCAG", "switch fluorescence ratio": 0.995}, {"sequence": "GGGGAGGCGA", "switch fluorescence ratio": 0.963}, {"sequence": "GGGGAGGGA", "switch fluorescence ratio": 1.01}, {"sequence": "GGGGAGTCTG", "switch fluorescence ratio": 0.984}, {"sequence": "GGGGATAGGA", "switch fluorescence ratio": 0.998}, {"sequence": "GGGGATTAG", "switch fluorescence ratio": 0.987}, {"sequence": "GGGGATTCAC", "switch fluorescence ratio": 1.01}, {"sequence": "GGGGCATAAT", "switch fluorescence ratio": 0.96}, {"sequence": "GGGGCATGTG", "switch fluorescence ratio": 1}, {"sequence": "GGGGCCCTCG", "switch fluorescence ratio": 0.989}, {"sequence": "GGGGCGGCTG", "switch fluorescence ratio": 0.952}, {"sequence": "GGGGCGTGGC", "switch fluorescence ratio": 1.02}, {"sequence": "GGGGGATCCA", "switch fluorescence ratio": 0.953}, {"sequence": "GGGGGCGAAG", "switch fluorescence ratio": 1.03}, {"sequence": "GGGGGGTGAT", "switch fluorescence ratio": 0.984}, {"sequence": "GGGGGTCCTG", "switch fluorescence ratio": 1.04}, {"sequence": "GGGGGTTTCT", "switch fluorescence ratio": 0.997}, {"sequence": "GGGGTAGGAA", "switch fluorescence ratio": 0.969}, {"sequence": "GGGGTATTAA", "switch fluorescence ratio": 1.02}, {"sequence": "GGGGTCCAGG", "switch fluorescence ratio": 1.18}, {"sequence": "GGGGTCCAGT", "switch fluorescence ratio": 0.958}, {"sequence": "GGGGTGACCC", "switch fluorescence ratio": 0.992}, {"sequence": "GGGGTGCGGC", "switch fluorescence ratio": 0.949}, {"sequence": "GGGGTTGAA", "switch fluorescence ratio": 0.981}, {"sequence": "GGGGTTGCCT", "switch fluorescence ratio": 0.959}, {"sequence": "GGGGTTGCTT", "switch fluorescence ratio": 1.01}, {"sequence": "GGGTAACACG", "switch fluorescence ratio": 1.03}, {"sequence": "GGGTAATTCG", "switch fluorescence ratio": 0.98}, {"sequence": "GGGTACAAGT", "switch fluorescence ratio": 0.971}, {"sequence": "GGGTACGCGT", "switch fluorescence ratio": 0.934}, {"sequence": "GGGTAGCACT", "switch fluorescence ratio": 0.959}, {"sequence": "GGGTAGCATT", "switch fluorescence ratio": 1.02}, {"sequence": "GGGTATAGA", "switch fluorescence ratio": 1.01}, {"sequence": "GGGTATGGT", "switch fluorescence ratio": 0.95}, {"sequence": "GGGTATTAT", "switch fluorescence ratio": 0.994}, {"sequence": "GGGTATTCGA", "switch fluorescence ratio": 0.978}, {"sequence": "GGGTATTCGG", "switch fluorescence ratio": 0.995}, {"sequence": "GGGTATTGGC", "switch fluorescence ratio": 0.99}, {"sequence": "GGGTCACGTC", "switch fluorescence ratio": 0.967}, {"sequence": "GGGTCATCGT", "switch fluorescence ratio": 0.968}, {"sequence": "GGGTCCAGTG", "switch fluorescence ratio": 1.02}, {"sequence": "GGGTCCCCCA", "switch fluorescence ratio": 0.974}, {"sequence": "GGGTCCCGGC", "switch fluorescence ratio": 1.02}, {"sequence": "GGGTCGAGTA", "switch fluorescence ratio": 1.11}, {"sequence": "GGGTCGCATA", "switch fluorescence ratio": 1.04}, {"sequence": "GGGTCGCCT", "switch fluorescence ratio": 1}, {"sequence": "GGGTCGTGCC", "switch fluorescence ratio": 0.954}, {"sequence": "GGGTCTGCTT", "switch fluorescence ratio": 0.978}, {"sequence": "GGGTCTTCTG", "switch fluorescence ratio": 1.03}, {"sequence": "GGGTGAGATG", "switch fluorescence ratio": 1.03}, {"sequence": "GGGTGCCCGA", "switch fluorescence ratio": 1.03}, {"sequence": "GGGTGCTGTC", "switch fluorescence ratio": 0.989}, {"sequence": "GGGTGGCCTT", "switch fluorescence ratio": 1.05}, {"sequence": "GGGTGGTAAC", "switch fluorescence ratio": 0.99}, {"sequence": "GGGTGTATCA", "switch fluorescence ratio": 0.958}, {"sequence": "GGGTGTGCT", "switch fluorescence ratio": 0.99}]}]}
